Laboratory results taken from PubChem BioAssay AID1468 (National Center for Advancing Translational Sciences (NCATS), 2008).
“And” between values parts separate entries of the source, which are not always exact repeats. Equal entries are not always repeated. In all, about 280,000 compounds went through this assay and about 1,100 (0.39%) were called active. This list was built around the results that the source calls inconclusive (neither active nor inactive); the mix of calls is not that of the screen. The call rests on the fitted dose curve; in most records, active means well fitted inhibition curve with a large enough effect; inconclusive means small, poorly fitted or top-dose-only effect, or effect the other way; inactive means flat fitted curve, though single readings scatter. Potencies beside an inconclusive call are fits to weak or partial responses and may not hold up.

Target: Microtubule-associated protein tau (Homo sapiens) (UniProt P10636)
Test: qHTS for Inhibitors of Tau Fibril Formation, Fluorescence Polarization; further: nearly all actives have a fitted effect of over 55% in size
Conditions: K18 P301L tau heparin fibrillization, Alexa594 FP, 6 h; series mostly up to 57.7 µM; activity, negative = inhibition: at the top concentration
Summary of the method: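 Heparin (20 uM) drove fibril formation of recombinant tau K18 P301L, 15 uM unlabeled with 0.24 uM Alexa 594 label, for 6 hr at 37 C in 100 mM sodium acetate pH 7. Fluorescence polarization (555/632 nm) read 1 hr after 30 uM ThT.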
On the % scale 0 is the no-effect control and ±100 the full control effect; potency means the concentration at half of the fitted maximal effect; tags describe the fitted curve by direction and shape.

Sequence of UniProt P10636 (P10636 whole entry, looked up): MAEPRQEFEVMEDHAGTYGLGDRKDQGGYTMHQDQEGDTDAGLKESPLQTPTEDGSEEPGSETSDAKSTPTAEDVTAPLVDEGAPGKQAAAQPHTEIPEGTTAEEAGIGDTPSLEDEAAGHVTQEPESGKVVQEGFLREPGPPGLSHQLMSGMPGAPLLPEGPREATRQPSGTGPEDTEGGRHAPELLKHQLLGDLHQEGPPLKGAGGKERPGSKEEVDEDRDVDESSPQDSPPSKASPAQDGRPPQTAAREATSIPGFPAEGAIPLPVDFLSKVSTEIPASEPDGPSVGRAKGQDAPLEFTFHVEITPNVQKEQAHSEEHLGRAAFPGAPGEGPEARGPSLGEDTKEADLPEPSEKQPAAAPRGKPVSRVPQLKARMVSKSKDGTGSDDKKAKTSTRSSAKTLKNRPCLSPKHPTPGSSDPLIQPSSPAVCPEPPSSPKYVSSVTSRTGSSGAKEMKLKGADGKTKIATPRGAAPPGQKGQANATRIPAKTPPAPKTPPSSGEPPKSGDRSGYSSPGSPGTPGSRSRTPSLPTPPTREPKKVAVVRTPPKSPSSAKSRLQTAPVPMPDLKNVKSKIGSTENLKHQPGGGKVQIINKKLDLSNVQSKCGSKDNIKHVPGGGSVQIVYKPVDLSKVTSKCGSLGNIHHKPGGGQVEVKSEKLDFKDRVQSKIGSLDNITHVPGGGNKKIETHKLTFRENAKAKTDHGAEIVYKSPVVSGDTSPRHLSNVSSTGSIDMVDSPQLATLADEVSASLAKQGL

Q: Which Potency does the source give for `Cc1ccc(C2C(C#N)=C(N)SC(N)=C2C#N)o1` here?
A: The Potency was active: 17.8 µM.

Q: Which “activity, negative = inhibition” value does the source give for `O=C(O)c1cccc(-n2cccc2/C=C/[N+](=O)[O-])c1` here?
A: The value was inactive: -9.18%.

Q: For `COC(=O)C1=C(CSc2nc3c(cc2C#N)CN(C)CC3)OC(N)=C(C#N)C1c1ccccc1F` (configuration not stated), which Potency is on record?
A: Its Potency is inconclusive: 31.6 µM [inhibitor, single point].

Q: Which “activity, negative = inhibition” value does the source give for `O=S(=O)(Nc1nc2ccccc2nc1-[n+]1cccc(N=C([O-])c2ccc(Cl)cc2)c1)c1ccccc1` here?
A: The value was inactive: -5.64%.

Q: Which Potency does the source give for `Cc1ccc(NC(=S)NCC(C)CSc2ccc(Cl)cc2)cc1` (configuration not stated) here?
A: Its Potency is inconclusive: 12.6 µM [inhibitor, partial curve].

Q: `CN1C2CCC1CC(OC(c1ccccc1)c1ccccc1)C2` (configuration not stated) was tested. Which Potency did it give?
A: Its Potency is inconclusive: 7.94 µM [inhibitor, single point].

Q: `C(=Nc1ccc(N2CCOCC2)cc1)c1c[nH]c2ccccc12` was tested. Which “activity, negative = inhibition” value did it give?
A: Its value is inactive: -10.3%.

Q: `Cc1cc(C)n(-c2nc3ccccc3nc2Nc2ccc3c(c2)OCO3)n1` was tested. Which Potency did it give?
A: The Potency was inconclusive: 5.01 µM [activator, partial curve].

Q: Which “activity, negative = inhibition” value does the source give for `COc1ccccc1-c1cncnc1NCCN1CCOCC1` here?
A: The value was inactive: -4.63%.

Q: Which “activity, negative = inhibition” value does the source give for `CC1CCC2(CC1)NC(=O)N(CC(=O)c1cn(CCC#N)c3ccccc13)C2=O` (configuration not stated) here?
A: Its value is inactive: 1.47%.

Q: Which “activity, negative = inhibition” value does the source give for `COc1cc(CN2CCNC(=O)C2CC(=O)NCCC2=CCCCC2)cc(OC)c1` (configuration not stated) here?
A: Its value is inactive: -3.96%.

Q: With `O=C(CC1N=C2c3ccccc3N=C(SCc3ccc(Cl)cc3)N2C1=O)NC1CCCCC1` (configuration not stated) as the molecule, how does the Potency read?
A: Its Potency is inconclusive: 0.891 µM [inhibitor, partial curve].

Q: `COc1ccc(S(=O)(=O)N(C(=O)c2ccco2)c2cc3sc(=O)oc3c3ccccc23)cc1` was tested. Which Potency did it give?
A: The Potency was active: 20 µM.

Q: For `CCCCc1nn2c(N)c(/C=C3\C=Nc4ccccc43)c(=O)nc2s1`, which “activity, negative = inhibition” value is on record?
A: The value was inactive: -9.59%.

Q: For `CN1CCc2c(sc3c2c(NCc2ccco2)nc2nnnn23)C1`, which Potency is on record?
A: Its Potency is inconclusive: 3.16 µM [inhibitor, single point].

Q: With `Nc1nc(C2CCOCC2)cs1` as the molecule, how does the “activity, negative = inhibition” value read?
A: Its value is inactive: -3.7%.

Q: How did the Potency turn out when `Nc1c(C(=O)Nc2ccccc2Cl)nnn1Cc1cccc(Cl)c1` was run?
A: The Potency was inconclusive: 5.62 µM [inhibitor, partial curve].

Q: With `O=c1cc(N2CCCCC2)c(-c2ccccc2)nn1Cc1ccc(Cl)cc1Cl` as the molecule, how does the “activity, negative = inhibition” value read?
A: The value was inactive: -3.56%.

Q: For `CCOc1cc(/C=C2\SC(=Nc3ccc(F)cc3)N(c3ccc(F)cc3)C2=O)ccc1OCC(=O)O`, which “activity, negative = inhibition” value is on record?
A: Its value is inactive: 0.8%.

Q: How did the Potency turn out when `COc1ccc(N2CCN(S(=O)(=O)/C=C/c3ccccc3)CC2)cc1` was run?
A: The Potency was inconclusive: 3.16 µM [inhibitor, partial curve].

Q: `CCCCC1=CC2=CC(=O)C(C)(OC(=O)CC)C(=O)C2=CN1Cc1ccco1` (configuration not stated) was tested. Which Potency did it give?
A: Its Potency is “inactive”.

Q: `O=c1c2c3c(sc2nc(NCCO)n1CCc1ccccc1)CCCCC3` was tested. Which Potency did it give?
A: Its Potency is inconclusive: 3.16 µM [activator, partial curve].

Q: Which “activity, negative = inhibition” value does the source give for `CCOC(=O)CSc1nnc(CNC(=O)c2ccc([N+](=O)[O-])cc2)n1C` here?
A: The value was inactive: 9.59%.

Q: For `COc1ccccc1NS(=O)(=O)c1ccc(C)c(NC(=O)NCCCl)c1`, which Potency is on record?
A: The Potency was inconclusive: 31.6 µM [inhibitor, single point].

Q: `Cc1ccc(S(=O)(=O)n2cnc3cc([N+](=O)[O-])ccc32)c(C)c1C` was tested. Which Potency did it give?
A: The Potency was inconclusive: 11.2 µM [inhibitor, partial curve].

Q: For `O=C(OCc1csc(Nc2ccccc2)n1)c1ccc(Cl)cc1`, which Potency is on record?
A: The Potency was inconclusive: 8.91 µM [activator, single point].

Q: Which Potency does the source give for `COCCCNC(=O)c1ccc(N2CCCC2)c(NS(=O)(=O)c2ccc(C)cc2)c1` here?
A: Its Potency is inconclusive: 39.8 µM [inhibitor, single point].

Q: With `CCc1cccc(C)c1NC(=O)COCc1cc(-c2ccc3c(c2)OCO3)on1` as the molecule, how does the “activity, negative = inhibition” value read?
A: Its value is inactive: 3.85%.

Q: Which Potency does the source give for `O=Cc1[nH]c2ccccc2c1N(C(=O)CCl)c1ccc([N+](=O)[O-])cc1` here?
A: The Potency was inconclusive: 17.8 µM [inhibitor, single point].

Q: With `Cc1cccc(NC(=O)c2ccc(F)c(S(=O)(=O)N(C)C3CCCCC3)c2)c1` as the molecule, how does the Potency read?
A: Its Potency is inconclusive: 39.8 µM [inhibitor, single point].

Q: `COc1ccc(C[C@H]2CN3C(=NC[C@H]3C)N2CCNC(=O)CCC2CCCCC2)cc1` was tested. Which Potency did it give?
A: Its Potency is inconclusive: 0.0891 µM [inhibitor, partial curve].

Q: Which “activity, negative = inhibition” value does the source give for `CCOc1cccc(CNCCO)c1OCc1ccc(Cl)cc1Cl` here?
A: The value was inactive: -0.206%.

Q: For `Cc1ccc2nc(CSc3nnc(-c4ccco4)o3)cc(=O)n2c1`, which Potency is on record?
A: The Potency was inconclusive: 20 µM [inhibitor, single point].

Q: `CN1CC(=O)N(CC(=O)Nc2ccc(N(C)C)cc2)c2ccccc2C1=O` was tested. Which Potency did it give?
A: The Potency was inconclusive: 14.1 µM [inhibitor, partial curve, poor fit].

Q: For `CCOC(=O)c1nnn2c1nc(N1CCCCC1)c1ccccc12`, which Potency is on record?
A: Its Potency is inconclusive: 31.6 µM [inhibitor, single point].

Q: `C[C@@]1(C(NC(=O)Cc2ccc(C(F)(F)F)cc2)c2ccc(-c3ccccc3)cc2)C[C@H]1C1CCCCC1` (some centres not stated) was tested. Which Potency did it give?
A: The Potency was inconclusive: 12.6 µM [inhibitor, partial curve].

Q: With `Cc1ccc(C(C)C)c(OCC(=O)Nc2nc3c(s2)CCCC3)c1` as the molecule, how does the Potency read?
A: The Potency was inconclusive: 17.8 µM [inhibitor, single point].

Q: How did the Potency turn out when `Oc1cccc(/C=N/N2CCN(C3c4ccccc4-c4ccccc43)CC2)c1` was run?
A: The Potency was inconclusive: 39.8 µM [inhibitor, single point].

Q: `COc1ccc(NC(=O)CNc2cc(S(=O)(=O)N3CCOCC3)ccc2NCC2CCCO2)cc1` (configuration not stated) was tested. Which “activity, negative = inhibition” value did it give?
A: The value was inactive: -1.99%.

Q: Which Potency does the source give for `COc1ccccc1Oc1nc2c(C)cccn2c(=O)c1/C=C(\C#N)c1nc2ccccc2[nH]1` here?
A: Its Potency is inconclusive: 44.7 µM [inhibitor, single point].

Q: Which “activity, negative = inhibition” value does the source give for `CCC(C)(C)C(=O)Nc1ccc(OC)cc1[N+](=O)[O-]` here?
A: Its value is inactive: 3.12%.

Q: Which “activity, negative = inhibition” value does the source give for `CCOc1cc2c(C#N)c(N3CCOCC3)nc(N)c2c(N)n1` here?
A: The value was inactive: 7.11%.

Q: With `COc1ccc2nc(N(Cc3cccnc3)C(=O)c3ccco3)sc2c1` as the molecule, how does the “activity, negative = inhibition” value read?
A: Its value is inactive: -3.42%.

Q: How did the “activity, negative = inhibition” value turn out when `O=C(Nc1ccc(-c2nc3ccccc3s2)cc1)C1=COCCO1` was run?
A: Its value is inactive: -6.54%.

Q: How did the Potency turn out when `CCCn1c(O)c(/C=C2\C=NN=C2c2ccccc2)sc1=S` was run?
A: Its Potency is active: 17.8 µM.

Q: With `Cc1cc(C)c(S(=O)(=O)NCC(c2ccc(N(C)C)cc2)N2CCc3ccccc32)c(C)c1` (configuration not stated) as the molecule, how does the “activity, negative = inhibition” value read?
A: Its value is inactive: 6.71%.

Q: How did the Potency turn out when `CCOC(=O)c1ccc(Nc2nc(C(=O)OCC)nc3ccccc23)cc1` was run?
A: The Potency was inconclusive: 28.2 µM [inhibitor, single point] and inconclusive: 39.8 µM [inhibitor, single point].
